Out of some 200,000 compounds screened, about 10 (0.005%) were called active. The inconclusive results got no clear call from the source; some entries with a clear call stand among them for comparison. Calls follow the shape of the dose curve; as a rule, active = well fitted inhibition curve with a large enough effect; inconclusive = small, poorly fitted or top-dose-only effect, or effect the other way, or another doubt; inactive = no such curve, though single readings can be large or run the other way. No potency is given beside an inconclusive call; the fits are too rough.
The compounds below were run against Lysosomal alpha-glucosidase (Homo sapiens) (UniProt P10253) (assay: qHTS Assay for Inhibitors of Human alpha-Glucosidase as a Potential Chaperone Treatment of Pompe Disease). Conditions: purified human GAA, 4-MU-alpha-glucoside fluorescence; activity change, negative = inhibition: at 76.9 µM (top of the series) unless noted.
How it was run: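 Compounds are titrated up to 77 uM against 4 nM human enzyme. Substrate 4-methylumbelliferyl-alpha-D-pyranoside (400 uM) reacts 20 min at room temperature in pH 5.0 buffer; liberated 4-methylumbelliferone is read at 440 nm.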
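For activity change, negative = inhibition in this document: plate controls were uninhibited enzyme wells for no effect and no-enzyme background for full effect.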
Potency is read from the fitted curve at half-maximal effect; tags tell the direction and shape of the fitted curve.

Structure (SMILES)	activity change, negative = inhibition	Potency
Cc1sc(NC(=O)c2cccnc2)nc1-c1ccccc1	inconclusive: 15% [activator]	
CC1=C(C#N)C(c2ccc(O)cc2)C2=C(CC(C)(C)CC2=O)N1 (configuration not stated)	inactive: 1.55%	
Cc1cc(C)cc(Oc2nc3c(C)cccn3c(=O)c2/C=C(\C#N)C(=O)NC2CCS(=O)(=O)C2)c1 (configuration not stated)		inconclusive [inhibitor, single point]
O=C1c2cnc3ncnn3c2CC2c3ccccc3CCN12 (configuration not stated)		inconclusive [activator, partial curve]
O=C(CCCN1C(=O)/C(=C/c2ccccc2)SC1=S)Nc1ccc(O)cc1		inconclusive [activator, full curve, poor fit]
On1nnc2c3ccccc3c3ccccc3c21	inconclusive: 23.6% [activator]	
CCOC(=O)Nc1ccc2c(c1)N(C(=O)CCN1CCOCC1)c1ccccc1S2		inconclusive [inhibitor, partial curve]
CCOc1ccc(N(CC(=O)Nc2cccc(OC)c2)S(=O)(=O)c2c(C)noc2C)cc1		inconclusive [inhibitor, full curve, poor fit]
CCSc1nc2c(c(=O)n1CC)SC(C)C2 (configuration not stated)		inconclusive [inhibitor, partial curve]
O=C(O)c1ccc(C(=O)c2ccc3c(c2)C(=O)N(CC2CCCO2)C3=O)cc1 (configuration not stated)	inconclusive: 18% [activator]	
COC(=O)c1c(NC(=S)NC(=O)c2ccco2)sc2c1CCCC2		inconclusive [inhibitor, single point]
CCOC(=O)c1nnc(-c2cccs2)nc1Oc1ccccc1C(=O)OC		inconclusive [inhibitor, full curve, poor fit]
COc1ccc2nc(C)cc(SCC(=O)N/N=C/c3ccc(O)c(O)c3)c2c1	inactive: -12%	
CCOC(=O)c1cnc2c(N=Nc3cccc(Cl)c3)c(N)nn2c1N	inconclusive: 15.7% [activator]	
CC(C(=O)NCC1CCCCC1)N1CCN(S(=O)(=O)/C=C/c2ccccc2)CC1 (configuration not stated)		inconclusive [inhibitor, partial curve]
C/C(=N\NC(=O)C(=O)N/N=C(\C)c1cccc(O)c1)c1cccc(O)c1		inconclusive [inhibitor, single point]
Cc1cccc(N2C(=O)C(Cl)=C(Nc3c(C)n(C)n(-c4ccccc4)c3=O)C2=O)c1C	inactive: 1.1%	
CCOc1ccc(N2C(=O)C3ON(c4ccccc4)C(c4cccs4)C3C2=O)cc1 (configuration not stated)	inconclusive: 15.9% [activator]	
CCc1ccc(S(=O)(=O)NCc2csc(-c3cccnc3)n2)s1		inconclusive [inhibitor, single point]
Cc1ccc(-c2nc(C)c(C(=O)O)s2)cc1		inconclusive [inhibitor, single point]
CCc1ccc(NC(=S)/N=C(\N)Nc2nc(C)c3cc(CC)ccc3n2)cc1	inconclusive: 14.2% [activator]	

Structure (SMILES)	activity change, negative = inhibition	Potency
CC(=O)C1=C(O)C(=O)N(Cc2ccco2)C1c1ccc2c(c1)OCO2 (configuration not stated)	inconclusive: 15.4% [activator]	
O=C(C1CCN(S(=O)(=O)c2ccc(F)cc2)CC1)N1CC=C(c2ccccc2)CC1		inconclusive [inhibitor, single point]
COc1cccc(N2C(=O)C3CCCN3C2c2ccc(F)cc2)c1 (configuration not stated)		inconclusive [inhibitor, partial curve, poor fit]
CC(C)NCC(O)c1ccc(NS(C)(=O)=O)cc1 (configuration not stated)	inactive: -8.51% [at 15.4 µM]	
COc1cc(NC(=O)c2cccs2)c(C(=O)OCC(=O)NCc2ccco2)cc1OC		inconclusive [inhibitor, partial curve, poor fit]
CCC(=O)Nc1c(OC(=O)CC)ccc2c(C)cc(=O)oc12		inconclusive [activator, partial curve]
CCC(=O)N(CCc1ccccc1)Cc1cc2cc3c(cc2[nH]c1=O)OCO3		inconclusive [activator, partial curve]
O=C(O)CCCCCn1c(SCC(=O)c2ccc(O)c(O)c2)nc2ccsc2c1=O	inactive: -2.67%	
COc1ccc(Cn2nnnc2C(c2ccncc2)N2CCOCC2)cc1 (configuration not stated)		inconclusive [inhibitor, single point]
CCOc1ccc(S(=O)(=O)N2CCC(C(N)=O)CC2)c2ccccc12	inconclusive: -15.7% [inhibitor]	
Cc1ccc(CNC(=O)C2CC(c3ccccc3[N+](=O)[O-])=NO2)cc1 (configuration not stated)	inactive: -3.46%	
O=C(c1ccc(F)cc1)[C@@H]1[C@@H](C(=O)c2ccccc2)[C@@]2(C(=O)Nc3ccccc32)[C@H]2c3ccccc3C=CN12	inactive: -2.29% [at 15.4 µM]	
Cc1ccc2c(c1)cc(CN(Cc1cccs1)C(=O)c1ccco1)c1nnnn12	inconclusive: -15.5% [inhibitor]	
CCN1CCN(C(=O)c2cc3c(=O)n(C)c4ccccc4c3n2C)CC1		inconclusive [inhibitor, full curve, poor fit]
Cc1ccc(NC(=O)c2cc(C(C)(C)C)nn2Cc2ccccc2)cc1	inactive: -16.4%	
O=[N+]([O-])c1cc2c(cc1/C=N\NS(=O)(=O)c1ccccc1)OCO2		inconclusive [inhibitor, single point]
OCCCNc1c2c(nc3cc(-c4ccc(Cl)cc4)nn13)CCC2	inconclusive: 16.4% [activator]	
N#Cc1c(NC(=O)CSc2n[nH]c(N)n2)oc(-c2ccccc2)c1-c1ccccc1		inconclusive [inhibitor, full curve]
CC(C)(C)n1nnnc1C(c1cccs1)N(Cc1cccnc1)Cc1ccccc1Cl (configuration not stated)		inconclusive [inhibitor, single point]
CC(C)(C)c1nc(N2CCN(C(=O)c3ccco3)CC2)c2nnn(Cc3ccccc3)c2n1		inconclusive [inhibitor, single point]
CC(=O)c1ccc(NS(=O)(=O)c2ccc3ccccc3c2)cc1		inconclusive [inhibitor, partial curve]
